Test results as given in the RNAGym collection of RNA variant scans (doi:10.7554/elife.90254).
The source gives no read counts; variants with many changes may rest on few reads.

B1: LINE1-mini (parent)
chain: GGCAGAGCUCAACACAGCGUGGCAAAGUGGCUGUGGCUAGACUGCC

Variants of: B1
Assay: self-cleavage, relative activity (ratio to wild type); higher = more cleavage; in vitro, sequencing; the parent is a self-cleaving ribozyme

Variant	self-cleavage
A11C A26G G27A C42A G44U	0.02
C10U C13G G44A	0.03
A11C G19A A24C G35C C37G G44C	0
A11G C13U U28A G40U	0.02
A11G G19C C46U	0.02
A11C G22U C23A	0.05
A11C A14C A16U	0.02
A11G A12C C18A U28C U34C G40C	0.01
A11C C15A C18U G22A	0.02
A11C C18G U34C U38C	0.02
C10U A16G G29C A39U	0.19
A11G A12G U32C	0
A11G G22U U38G A39C	0.01
C10U A26C U32G C42A	0.08
C10U G36A C42A	0
C10U C18U A26G	0.53
A11C C23A U32A C37U	0.01
A11C G22C A24G	0.07
C10U A26G G30C	0.27
A11G G17A G27C A39G	0.02
C10U U20C A25U A39G	0.05
A11G G33C U43C	0.01
C10U G36A U38C	0.03
A11C G21U G22C A39C	0.01

Variant	self-cleavage
C10U G21U U28A G29C C37A	0.01
A11C A16G G29U G30U C46A	0
C10U C13A G21U	0
C10U U34A G44U	0.05
A11G G17A C23U C31U G33C	0
C10U A26U G29A G30U U32G	0.02
A11C C18U C42A C46G	0.01
C10U G30A C37G C42A	0.02
C10U C15G C37U	0.05
A11C C37G C46A	0
A11U A12C G33A C45A	0.01
C10U G17C A25C U28A	0.51
A11C G33U C46U	0.05
A11C G33U C46A	0.02
A11G C13G C15G A16U A24G G33A	0.02
C10U G17A C37A A39G C45G	0.03
A11C G19U U20G C23A C45U	0.13
A11C A14C A16G G17C A41U	0.01
A11C U38G A41C	0
A11U A12C G22A C31U C37A U38G C46U	0.01
A11G C15A C31G	0.04
C10U U32A U38G	0
C10U U32A U38A	0.02
C10U G22U A24U G35U	0.03

Variant	self-cleavage
C10U A25G A26U C31G G35A	0.03
C10U G17A U38C C42U	0.01
C10U G22A A25G A41G	0.01
C10U C15G A16U G33U	0.02
A11C A24U G36A C37U	0.01
C10U G17U A26U C31U	0.06
A11C G17A G19U	0.03
A11C G22A C23U A26C G35C	0.04
C10U G21C G30U	0.18
C10U G17U C23U	0.05
C10U G22A U28A G36A U43C	0.03
C10U C13A C37U U38G G44U	0.02
A11C U20A C42A	0
A11G A12C G17U C18G G40A	0.01
A11G G17C A39U	0.02
A11C A12U G22A C46U	0.01
C10U G21U U43C	0.02
A11G G17U A25U U38A	0.01
A11C C13U C31U	0.04
A11G G17A G44A	0.04
C10U A12U A25U G33A	0.05
C10U U20G G22U	0.11
A11G G17A C31A	0.01
C10U G21A A24U A26C U43A G44A	0.05

Variant	self-cleavage
C10U G19A A24G G27C	0.2
A11C A24C G36U G44U	0.02
C10U G22C A41C	0.02
C10U C18G U34C	0.04
C10U G29A C31G	0.25
A11G C18A G22A G44U	0.01
C10U G35A G36U C37A C42A	0.04
C10U A12U A25U G27U G35A	0.05
A11C G22A A25U	0.04
C10U G17C C23U U38C	0.12
C10U U32A A39U G44U	0
C10U C13A C31U	0.05
C10U A26C A41G	0
A11G U32C G33U	0.04
A11C C23U U28A U34G G40A	0.02
A11G C13U A39G G44C	0.04
C10U C18A C42U G44U	0.01
C10U A16G U32C	0.05
C10U C23G C45G	0.08
C10U U43G C46U	0.05
A11C G17A A24G G29U C37U	0
A11C C13A C42G	0.02
C10U G21A C46A	0.6
C10U C31G A39C	0.03

Variant	self-cleavage
A11C C15A A24C A26U	0
A11C A24U G27U G44A	0
C10U C31U U34G	0.05
A11C G29C A39C	0.02
A11C G29C A39U	0.07
A11G A16G C18A G30A G33U	0.02
C10U U20C G21U A24U A41G	0.07
A11C A12C U32A	0.03
C10U U20G A39G	0.07
C10U G40A A41G	0.02
C10U U20C C45G	0.01
A11G C18U G36A C45G	0.02
A11C U20C U34C	0.02
C10U G17C C18G	0.02
A11C A12G C37A G44U	0
A11G U20A G33A	0.03
C10U C13U G40U	0.11
C10U C13U G40A	0.03
C10U G21A A39G	0.17
A11C C13U G19C G40A G44C	0.01
C10U A14C C23G A26C C37A	0.02
A11C G30C C42A U43G	0.01
A11C U34C C37U A41G	0.04
C10U A26G G33A	0.01

Variant	self-cleavage
A11G A25U C45A	0.02
C10U A12G A25G G27C C45G	0.02
A11G U20G A39G	0.06
A11C U20A A39C	0.01
C10U C37G C45U	0.02
C10U C18U U20G G30A	0.05
A11C A26G C45G	0
A11G G22U A24U	0.03
A11G C18G G21U	0.03
C10U G17C G40C	0.02
C10U C15A G29A G30A U34G C42U U43G	0.01
A11G G35U A39U	0.04
A11C C18G A24U U32A	0.03
A11G C31A C46U	0.03
A11G C37A U38A G40U	0.01
A11G C13A A14C	0.01
A11C C23A C42A C45A	0
C10U A25C U28A	0.24
C10U C18U C46A	0.47
C10U U34C G35C G40A C42U	0.01
C10U C13A C23A	0.04
A11C G21U G35U	0.03
A11G A14U G22A C31G C45A	0.01
A11C A16G G21U A24C	0.01

Variant	self-cleavage
C10U A12U G30U C31G	0.02
A11G C31U A41U C42G	0.01
A11C G21U G27A U43G	0
A11G U28G C42A U43A	0.02
A11C A14U U20C A39G	0.02
C10U C13U A26U U34G	0.04
C10U C15U G35U C45U	0.02
A11G A16C C46U	0.01
A11C A26U G30U	0
C10U G17C A25C U38C U43A	0.01
C10U C13U G27C C46A	0.08
A11G A16U A24U G29U	0.04
C10U C18U A25U	0.28
A11G A14U A16U	0.03
A11G U38A G40U	0
C10U G21C C23A U28A	0.33
A11C C13A U34G C45A	0.01
A11C G21C G40C C42A	0.01
A11G G21U G22C G30C U38A A41C	0
C10U G17U G21A C31A G44A	0.25
A11C G22U G30A G44U	0.02
C10U G19C G22U U28G G29U C42U	0.07
A11G A16G C42A	0.01
